Experimental data reported in patent publication US20210163581A1.

B1: Ab#F (antibody, human IgG4 S228P, kappa)
heavy: EVQLVQSGAEVKKPGASVKVSCKASGYTFTSYYMYWVRQAPGQGLEWIGGINPSNGGTNFNEKFKNRATLTVDKSTSTAYMELSSLRSEDTAVYYCTREGNPYYTMNYWGQGTLVTVSSASTKGPSVFPLAPCSRSTSESTAALGCLVKDYFPEPVTVSWNSGALTSGVHTFPAVLQSSGLYSLSSVVTVPSSSLGTKTYTCNVDHKPSNTKVDKRV[human IgG4 Fc with S228P (EU numbers) not listed]
light: DVVMTQSPLSLPVTIGQPASISCKSSQSLLESDGKTYLNWLQQRPGQSPRRLIYLVSKLDSGVPDRFSGSGSGTDFTLKISRVEAEDVGVYYCWQGTHFPWTFGGGTKVEIKRTVAAPSVFIFPPSDEQLKSGTASVVCLLNNFYPREAKVQWKVDNALQSGNSQESVTEQDSKDSTYSLSSTLTLSKADYEKHKVYACEVTHQGLSSPVTKSFNRGEC
B2: Ab#J (antibody, human IgG1, kappa)
heavy: EVQLVQSGAEVKKPGASVKVSCKASGYTFTSYYMYWVRQAPGQGLEWIGGINPSNGGTNFNEKFKNRATLTVDKSTSTAYMELSSLRSEDTAVYYCTREGNPYYTMNYWGQGTLVTVSS[human IgG1 constant region with changes not listed]
light: B1 light
B3: Ab#R (antibody, human IgG4 S228P, kappa, F234A L235A)
heavy: EVQLVQSGAEVKKPGASVKVSCKASGYTFTSYYMYWVRQAPGQGLEWIGGINPSNGGTNFNEKFKNRATLTVDKSTSTAYMELSSLRSEDTAVYYCTREGNPYYTMNYWGQGTLVTVSSASTKGPSVFPLAPCSRSTSESTAALGCLVKDYFPEPVTVSWNSGALTSGVHTFPAVLQSSGLYSLSSVVTVPSSSLGTKTYTCNVDHKPSNTKVDKRV[human IgG4 Fc with S228P F234A L235A (EU numbers) not listed]
light: B1 light

target: Cx43 (peptide used in the Biacore affinity assay of Example 1); assay: SPR Biacore T200, antibody and Cx43 peptide; format and peptide not given

| Kd [nM] | Binder |
| --- | --- |
| 0.0335 | B1 |
| 12.6 | B2 |
| 49.2 | B3 |
